This note sets out measurements from PubChem BioAssay AID488969 (Vanderbilt High Throughput Screening Facility, 2010).

Over roughly 110,000 compounds, “z-score” has its median near -0.1; the highest 2% begin near 2. The list shows a part of the results. Activity calls are given as the source filed them.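 How the source made its calls: active means z-score in the third read window above 3 or below -3; inactive means the rest.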

The target in the test is Metabotropic glutamate receptor 8 (Rattus norvegicus) (UniProt P70579). Description: rat mGluR8 modulators via GIRK flux, primary screen, cell-based, thallium flux, HTS (AID 488969). The settings on record: HEK293 rat mGluR8, GIRK (G protein-gated inwardly rectifying potassium channel) thallium flux, FluoZin2; at 10 µM; stronger effect = higher value; submaximal glutamate (EC20) added with thallium.
Chain of UniProt P70579 (P70579 whole entry, looked up): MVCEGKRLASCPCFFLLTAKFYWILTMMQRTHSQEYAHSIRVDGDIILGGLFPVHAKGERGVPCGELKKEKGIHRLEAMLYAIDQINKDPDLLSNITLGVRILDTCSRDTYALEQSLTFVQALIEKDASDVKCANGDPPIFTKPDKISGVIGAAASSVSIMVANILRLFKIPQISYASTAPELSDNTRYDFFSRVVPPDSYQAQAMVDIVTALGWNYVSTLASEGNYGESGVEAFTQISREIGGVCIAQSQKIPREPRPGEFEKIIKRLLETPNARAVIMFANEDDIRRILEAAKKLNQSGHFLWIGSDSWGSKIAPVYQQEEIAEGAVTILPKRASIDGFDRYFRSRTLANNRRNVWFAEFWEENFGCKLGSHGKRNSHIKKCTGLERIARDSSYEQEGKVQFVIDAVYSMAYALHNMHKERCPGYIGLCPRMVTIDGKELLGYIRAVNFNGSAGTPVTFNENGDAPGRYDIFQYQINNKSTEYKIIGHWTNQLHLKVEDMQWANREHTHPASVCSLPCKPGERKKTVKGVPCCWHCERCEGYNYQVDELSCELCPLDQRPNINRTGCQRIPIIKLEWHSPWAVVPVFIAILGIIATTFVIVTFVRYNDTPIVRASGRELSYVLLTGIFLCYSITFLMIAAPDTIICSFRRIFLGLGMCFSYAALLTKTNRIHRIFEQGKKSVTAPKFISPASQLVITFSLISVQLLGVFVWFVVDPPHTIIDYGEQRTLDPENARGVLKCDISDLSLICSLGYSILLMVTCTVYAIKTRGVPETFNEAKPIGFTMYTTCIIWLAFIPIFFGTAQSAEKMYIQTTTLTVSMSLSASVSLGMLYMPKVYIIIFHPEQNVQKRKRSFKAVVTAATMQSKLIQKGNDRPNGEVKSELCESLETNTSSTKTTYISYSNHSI
`COC(=O)c1nnn(-c2ccccc2)c1N` gave a z-score of -0.148.

For `COC(/C=C/Nc1ccc(Br)cc1)=C(C#N)C#N`, the z-score is -0.209.

The molecule `CCCC(=O)Nc1nnc(-c2ccc(Cl)s2)o1` came in with a z-score of 0.159.

`CCOC(=O)c1c(NC(=O)c2nn(CC)cc2Br)c(C#N)nn1-c1ccccc1` returned a z-score of 0.664.

Molecule `CCOC(=O)c1cnc2c(N=Nc3ccccc3)c(N)nn2c1N` displayed a z-score of 0.249.

`Cc1ccc(CNC(=O)/C(C#N)=C\c2ccc(N(C)C)cc2)cc1` displayed a z-score of 0.253.

For `O=S(=O)(c1cccc(-c2nnc(-c3cccnc3)o2)c1)N1CCCCC1`, the z-score was -0.241.

Take `COCCn1c(C(C)C)nc2oc3ccccc3c(=O)c2c1=O`: the z-score was -0.496.

In turn, `CC(C)CCn1c(SCC(=O)c2ccccc2)nc2c1c(=O)[nH]c(=O)n2C` came in with a z-score of -1.14.

As to `COc1ccccc1N1CCN(C(c2ccc(N(C)C)cc2)c2nnnn2CCc2ccccc2)CC1` (stereo not drawn), the z-score is -0.138.

`O=C(O)C1CCN(C(=O)c2ccccc2Cl)CC1` came in with a z-score of -0.551.

In turn, `CCC(=O)Oc1c(-c2ccccc2)c2nc3ccccc3nc2c2ccccc12` yielded a z-score of -0.0624.

Take `CC12C=CC3(CN(Cc4ccccc4)C(=O)C3C1C(=O)NC1CC1)O2` (stereo not drawn): the z-score is -0.325.

`COC(=O)c1ccccc1NC(=O)C1CCCN(S(=O)(=O)c2ccc(OC)cc2)C1` (stereo not drawn) gave a z-score of -0.798.

`Cc1cnn(-c2ccc3nnc(-c4ccc(Cl)cc4)n3n2)c1`: the z-score was -1.29.

Molecule `O=[N+]([O-])c1ccc(Cl)c(S(=O)(=O)N2CCCCCC2)c1` yielded a z-score of -0.0418.

As to `CCNC(=O)C1CC(=O)N(Cc2ccc3c(c2)OCO3)C(=Nc2ccc(OCC)cc2)S1` (stereo not drawn), the z-score was -0.0594.

On to `Cc1ccccc1Nc1nnc(SCC(=O)NC(=O)Nc2ccc3c(c2)OCCO3)s1`, for which the z-score is -0.314.

For the molecule `CCCCCCn1c(=O)c(F)cn(Cc2ccc(OC)c([N+](=O)[O-])c2)c1=O`, the z-score is -0.355.

With `CN(C)c1cc(O)c(C(=S)Nc2ccccc2)c(N(C)C)c1`, the z-score was -1.36.

As for `COc1ccc(Br)cc1CN(C)CC(=O)Nc1cc(Cl)ccc1Cl`, the z-score was -0.25.

In the case of `Cc1cccc(N2CCN(C(=O)Cn3nc(Cc4ccncc4)c4ccccc4c3=O)CC2)c1C`, the z-score is -0.488.

Regarding `CN1CCN(C(=O)NC2CCCN2S(=O)(=O)c2ccc(Cl)cc2)CC1` (stereo not drawn), the z-score is -0.108.

`CCOc1ccc(-c2nc(CSCC(=O)N3CCN(c4cccc(OC)c4)CC3)c(C)o2)cc1` gave a z-score of 0.208.

`CC(Sc1ccc(Cl)cc1)C(=O)Nc1ccccc1-c1ccccc1` (stereo not drawn): the z-score was -0.262.

The molecule `Clc1cccc(/C=N/Nc2nc(Cl)nc3ccccc23)c1` yielded a z-score of -0.0962.

The molecule `O=C(Nc1cc(C(F)(F)F)ccc1Cl)C(NCc1ccccc1)c1ccccc1` (stereo not drawn) had a z-score of 0.13.

`O=C(/C=C/c1ccc(Br)cc1)c1ccco1` came in with a z-score of -0.0794.

The molecule `C=CCN1C(=O)CS/C1=C(\C#N)S(=O)(=O)c1ccc(C)cc1` came in with a z-score of 0.0631.

Molecule `CCCCn1nnnc1SCC(=O)N(CC)CC` yielded a z-score of 0.0106.

With `CCOc1ccc(Nc2nc(Cc3nnc(SCC(=O)NC4CCCCC4)n3C)cs2)cc1`, the z-score was -0.301.

Molecule `COc1cc(OC)c(-c2nnc(-c3ccc(OC)c(OC)c3OC)o2)cc1OC` showed a z-score of -0.705.

Take `O=C(Nc1cnn(Cc2c(Cl)cccc2Cl)c1)C(c1ccccc1)c1ccccc1`: the z-score was -0.224.

`CN(C)C(=O)N1CCN(C(=O)c2ccccc2Sc2ccccc2C#N)CC1` gave a z-score of 0.305.

For the molecule `Cc1cc(C(=O)COC(=O)c2csc3c2CCCC3)c(C)n1C`, the z-score was found to be 0.456.

In turn, `N#Cc1ccccc1Cn1cc(C#N)c2ccccc21` displayed a z-score of -0.163.

The molecule `COc1ccccc1Nc1nc(C2(C)CCC(=O)O2)cs1` (stereo not drawn) returned a z-score of 0.011.

Regarding `CC(=O)Cc1nsc(NC(=O)c2ccc(-c3ccc(Cl)cc3Cl)o2)n1`, the z-score is -0.29.

For `O=c1cc(NCc2ccco2)c2ccccc2o1`, the z-score is -0.304.

`CC(C)n1c(=O)[nH]c2ccccc21` yielded a z-score of 1.11.

`CCOc1cc(C)nc(NCCc2ccc(OC)c(OC)c2)n1` displayed a z-score of -0.375.

`CCN(CC)S(=O)(=O)c1ccc(-c2nnc(SCC(=O)Nc3nc(C)cs3)o2)cc1` showed a z-score of -0.361.

In turn, `COc1ccc(NC2C=CS(=O)(=O)C2)c(OC)c1` (stereo not drawn) displayed a z-score of 0.194.

As to `CCC/S(CC1CC1(Cl)Cl)=N\S(=O)(=O)c1ccc(C)cc1` (stereo not drawn), the z-score was determined as 0.367.

The molecule `O=C(O)CCCCCNC(=O)CCn1nnc2ccccc2c1=O` showed a z-score of 0.561.

As to `CCCC1Cc2c(sc3nc(SC)nc(N)c23)CO1` (stereo not drawn), the z-score is -0.341.

With `O=C(O)CSCC(=O)Nc1ccccc1`, the z-score stood at 0.00603.

For the molecule `Cc1ccc(S(=O)(=O)NCC(=O)N2CCN(c3ccccn3)CC2)cc1`, the z-score was 0.32.

`CCOc1ccc(OCC)c2sc(C)nc12` registered a z-score of -0.6.

`CCC(=O)N1CN(S(=O)(=O)c2ccc(C)cc2)CC1C` (stereo not drawn) displayed a z-score of -0.446.

The molecule `Cn1c(CC(=O)Nc2ccccc2)c(Sc2ccccc2)c2ccccc21` displayed a z-score of -0.106.

Turning to `CCOc1ccc(-c2nc(-c3cccnc3)no2)cc1`, the z-score was determined as 0.878.

In turn, `Cc1cc2nc(C3CCCN(C(=S)Nc4ccccc4)C3)[nH]c2cc1C` (stereo not drawn) yielded a z-score of -0.0603.

Molecule `O=C(NCCc1ccccc1)c1cccnc1` returned a z-score of -0.0437.

With `COc1ccccc1CO/N=C/c1cccn1-c1nccc(N(C)C)c1C#N`, the z-score was -0.175.

For `COc1ccc(/C(C)=N/NC(=O)c2ccc(CSc3cccc4cccnc34)cc2)cc1OC`, the z-score was -0.51.

`Cc1ccccc1NC(NC(=O)OCCn1c([N+](=O)[O-])cnc1C)C(Cl)(Cl)Cl` (stereo not drawn) gave a z-score of -0.421.

On to `CC(=O)N(C(C)=O)c1c(C#N)c(C)n(-c2ccccc2)c1C(=O)c1ccccc1`, for which the z-score was found to be 0.969.

With `Cc1ccc2cc3cc(C(=O)N4CCN(Cc5ccccc5)CC4)sc3nc2c1`, the z-score worked out at 0.586.

For `CCOC(=O)/C(=N\Nc1ccc(OC)cc1)c1csc(Nc2ccccc2)n1`, the z-score was 0.551.

`O=S(=O)(Cc1cc(-c2ccc(Cl)cc2)no1)c1ccccc1`: the z-score was -0.133.

The molecule `CN(C)c1nc(N)nc(/C(C#N)=C/C2CC3C=CC2C3)n1` (stereo not drawn) registered a z-score of -1.16.

The molecule `Cn1nnnc1SCCNCc1ccc(Cl)cc1` registered a z-score of -0.013.

Take `CCC(C)C(=O)N1CCCC(c2nc(-c3cccs3)no2)C1` (stereo not drawn): the z-score was -0.744.

Molecule `COc1ccc(Cl)cc1NC(=O)C/C(C)=N/NC(=O)CC#N` came in with a z-score of -0.633.

On to `CC(C)C(NC(=O)C1CCCCC1)C(=O)Nc1ccncc1` (stereo not drawn), for which the z-score was 0.244.

Molecule `Cn1nc(-c2ccc(Cl)cc2)c2cc(C(=O)NC3CC3)sc21` had a z-score of 0.194.

Consider `COCCOC(=O)C1=C(C)NC2=C(C(=O)CCC2)C1c1cc2c(cc1Br)OCO2` (stereo not drawn), for which the z-score came out at 0.0462.

`O=C(Nc1ccc(CN2CCOCC2)cc1)c1cc2ccccc2o1` yielded a z-score of 0.834.

As for `CC(Oc1ccccc1)C(=O)Nc1oc(-c2ccco2)c(-c2ccco2)c1C#N` (stereo not drawn), the z-score came to 0.186.

As for `Fc1ccc(NC(=S)N2CCCCC2)cc1`, the z-score was found to be 0.208.

`CCc1nnc(N2CCN(c3ncnc4c3oc3ccccc34)CC2)s1`: the z-score is -0.466.

Molecule `O=C(NN1CCOCC1)c1cccc2ccccc12` had a z-score of 0.557.

For `COC(=O)c1sc(NC(=O)COc2cccc(C)c2)nc1C`, the z-score was -0.0129.

`CCOC(=O)/C(=N\Nc1ccccc1Cl)N1CCN(Cc2ccccc2)CC1` yielded a z-score of 0.108.

`Cc1c(-c2nc(N)nc(Nc3ccccc3)n2)oc2ccccc12` displayed a z-score of 0.0136.

For `CCOc1ccc(C2C(C#N)=C(N)N(c3sc4c(c3C#N)CCCC4)C3=C2C(=O)CCC3)cc1` (stereo not drawn), the z-score was -0.26.

On to `Cc1cc(N2CCC(C)CC2)n2nc(C)c(-c3ccccc3)c2n1`, for which the z-score is -0.28.

As for `CC(C)C(=O)Nc1ccccc1N1CCN(C(=O)c2ccccc2)CC1`, the z-score is active: -3.21.

Molecule `COC(=O)c1ccc(C2c3c(oc4ccc(F)cc4c3=O)C(=O)N2CCO)cc1` (stereo not drawn) registered a z-score of -0.286.

Take `O=C(NC1=NCCS1)c1sc2cc(Cl)cc(Cl)c2c1Cl`: the z-score was -0.48.

For the molecule `Cc1nc2cc(-c3ccccc3)nn2c(C)c1CCC(=O)N1CCN(c2ccccn2)CC1`, the z-score was found to be 0.627.

`O=C1CSc2nc3ccccc3n21`: the z-score was -0.0881.

Molecule `CCOC(=O)c1cnc(SC2CCc3ccccc3C2=O)nc1N` (stereo not drawn) came in with a z-score of -1.03.

On to `CC1(C)CC(C#N)(N2CCOCC2)CCO1` (stereo not drawn), for which the z-score turned out to be 0.231.

Regarding `CCOc1nc(-c2ccccc2)ccc1-c1noc(COC)n1`, the z-score was -0.0165.

`O=C(Cc1ccc(-n2cccc2)cc1)NC1CCCCCC1`: the z-score is -0.59.

In turn, `CCOC(=O)c1c(NC(=O)c2cc(-c3ccc(Cl)s3)nc3ccccc23)sc(C(N)=O)c1C` registered a z-score of 1.25.

In turn, `O=C1Nc2c(Br)cc(Br)cc2C1(O)N1CCOCC1` (stereo not drawn) came in with a z-score of -0.184.

Molecule `CCn1ncc([N+](=O)[O-])c1C(=O)N1CCCC1` registered a z-score of -0.182.

`COc1cccc(N2C(=O)CC(c3c[nH]c4ccccc34)C2=O)c1` (stereo not drawn) showed a z-score of -0.102.

On to `O=C(NNc1cc(N2CCOCC2)nc(N2CCOCC2)n1)c1ccc(Cl)cc1Cl`, for which the z-score was 0.211.

`CC1(C)CC(=O)C2=C(C1)NC(=O)CC2c1ccccc1F` (stereo not drawn) returned a z-score of -0.00253.

`O=c1[nH]c(N/N=C/c2ccccc2)nc2ccccc12` returned a z-score of -0.345.

On to `CCN(CC)C(=O)C(=O)N/N=C/c1ccc(C(=O)O)cc1`, for which the z-score was -0.418.

`N#Cc1c(NC(=O)c2ccccc2)sc2c1CCCCC2` yielded a z-score of -0.0717.

In turn, `COC(=O)\C(C(C)=O)=C(/C=C/C=C/C=C/N(C)C)N(C)C` registered a z-score of -1.31.

In turn, `Cc1ccc(-c2n[nH]c(=S)n2/N=C/c2cc3c(cc2[N+](=O)[O-])OCO3)cc1` returned a z-score of -0.121.

`CCN(CC)Cc1nc2c(c(=O)[nH]1)C1(CCCC1)Cc1ccccc1-2` had a z-score of -0.835.

As for `CCOC(=O)c1c(NC(=O)C2=C(C)NC(=S)NC2c2ccc(F)cc2F)sc(C)c1C` (stereo not drawn), the z-score worked out at 0.556.

In turn, `N#Cc1nc(N2CCCC2)nc(N2CCCC2)n1` had a z-score of -0.523.

In turn, `CCN(CC)c1ccc(NC(=O)COC(=O)c2cccs2)cc1` returned a z-score of -0.181.

Molecule `COc1cc(CN2CCCC(C)C2)cc([N+](=O)[O-])c1O` (stereo not drawn) came in with a z-score of -0.494.

Take `COC(CNC(=O)c1ccc(N2CCc3ccccc32)c([N+](=O)[O-])c1)OC`: the z-score is -0.241.

In the case of `Cn1c(=O)c2c(SCC(=O)NCc3ccco3)nc(CC(C)(C)C)nc2n(C)c1=O`, the z-score is 0.18.

Molecule `Cc1ccc(-n2c(SCC(=O)OC(C)C)nnc2-c2ccco2)cc1` returned a z-score of -0.429.

The molecule `CCOC(=O)C1=CSC2=NS(=O)(=O)CCN12` registered a z-score of -1.31.

In turn, `CC(C)c1nc2sc3c(c2c(=O)o1)CCCC3` registered a z-score of -0.242.

Take `COc1ccc(CCNC(=O)CSc2nncs2)cc1`: the z-score is -0.218.

In the case of `CCOC(=O)c1c(-c2ccccc2)csc1NC(=O)/C(C#N)=C/c1ccc(OC)c(OC)c1`, the z-score is -0.339.

As to `C1CCC2=NCCCN2CC1`, the z-score was -0.251.

On to `COc1ccccc1CNC(=O)C1CCN(S(=O)(=O)c2c(C)noc2C)CC1`, for which the z-score was -0.299.

The molecule `CCOC(=O)/C(C#N)=C/c1c(Oc2cccc(C)c2)nc2c(C)cccn2c1=O` yielded a z-score of 0.646.
